Measurements published in PubChem BioAssay AID1345082 (National Center for Advancing Translational Sciences (NCATS), 2018).
The whole screen tested about 94,000 compounds, of which about 4,000 (4.3%) were called active. Inconclusive means that the source gave no clear call. Such entries were picked first, then a sample of the others. Calls come from the whole dose curve; as a rule, active = well fitted inhibition curve with a large enough effect; inconclusive = small, poorly fitted or top-dose-only effect; inactive = no such curve, though single readings can be large or run the other way. Potencies beside an inconclusive call are fits to weak or partial responses and may not hold up.

assay: Cytotoxic Profiling in NIH 3T3 Cell Line of Diverse Libraries Using Quantitative High-Throughput Screening; conditions: NIH 3T3 viability, CellTiter-Glo ATP luminescence, 48-72 h; series mostly up to 96.7 µM; note: nearly all actives have a fitted effect of over 55% in size
Outline: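 Cells were seeded at 400 per well, treated with pin-transferred compound, and kept 48 or 72 hr at 37 °C before CellTiter-Glo addition and luminescence imaging of cellular ATP.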
Potency is the fitted concentration of half-maximal effect; tags give direction and shape of the fitted curve.

Row | SMILES | Potency
1 | COC(=O)c1cccc(NC(=S)N[C@H]2CO[C@H]3[C@@H]2OC[C@@H]3n2nnnc2Oc2cccc(N3CCOCC3)c2)c1 | inconclusive: 44.7 µM [inhibitor, partial curve, poor fit]
2 | O=C1NC(=NC2CCCCC2)C2(CCCN(Cc3cccnc3)C2)N1c1cccnc1 (stereo unspecified) | inconclusive: 50.1 µM [inhibitor, partial curve, poor fit]
3 | CCOc1ccc(NC(=O)C2CN(S(=O)(=O)c3cccnc3)CC23CCCCC3)cc1 (stereo unspecified) | inconclusive: 50.1 µM [inhibitor, single point]
4 | O=C(Nc1cc(F)ccc1F)N1CCOc2ccc(CN3CCc4ccccc4C3)cc2C1 | inconclusive: 50.1 µM [inhibitor, partial curve, poor fit]
5 | Cc1ccc(C(=O)NC2CCN(c3cc(-c4cccs4)[nH]n3)CC2)cc1F | inconclusive: 11.2 µM [inhibitor, full curve, poor fit]
6 | COCCNC(=O)c1nc2nc(-c3ccccc3)c(Cl)cc2n1C | inconclusive: 79.4 µM [inhibitor, partial curve]
7 | COc1ccccc1C(=O)NC[C@@H]1C=C(C)[C@H](CC(=O)NCc2ccccn2)C[C@H]1C(C)C | inconclusive: 50.1 µM [inhibitor, partial curve, poor fit]
8 | O=C(NCCCN1CCOCC1)C1CN(S(=O)(=O)c2ccccc2)CC12CCCCC2 (stereo unspecified) | inactive
9 | CCc1cccc(NC(=O)Cn2c(-c3ccccc3)nc(C)c(CCO)c2=O)c1 | inconclusive: 22.4 µM [inhibitor, full curve, poor fit]
10 | O=C(Nc1ccccc1)N1Cc2[nH]cnc2C[C@H]1c1nc(-c2ccc(Cl)cc2)no1 | inconclusive: 89.1 µM [inhibitor, partial curve, poor fit]
11 | CC(NC(=O)CN1C(=O)COc2ccc(C(=O)COc3ccc(F)cc3F)cc21)c1ccccc1 (stereo unspecified) | inconclusive: 70.8 µM [inhibitor, single point]
12 | C=CCN1C[C@@H]2C[C@@H](C(=O)NC)N(C(=O)c3ccc(-c4cccs4)s3)c3cccc(c32)C1=O | inconclusive: 28.2 µM [inhibitor, single point]
13 | COc1ccc(C2=NOC3(CCN(Cc4ccsc4)C3)C2)cc1 (stereo unspecified) | inconclusive: 44.7 µM [inhibitor, partial curve, poor fit]
14 | CCCc1noc(-c2cn(C3CCN(C(=O)Cc4cccc(F)c4)CC3)nn2)n1 | inactive
15 | COc1ccc(CCNC(=O)Cn2cccc2-c2nc(-c3ccc4c(c3)OCO4)no2)cc1OC | inconclusive: 50.1 µM [inhibitor, partial curve, poor fit]
16 | CCN1c2cc(C(=O)Nc3cccc(C)c3)ccc2C(=O)N2CCCCCC21 (stereo unspecified) | inconclusive: 44.7 µM [inhibitor, partial curve, poor fit]
17 | O=C(NCc1cccc(F)c1)C1=NO[C@@H]2CN(Cc3ccc(F)cc3)C[C@H]12 | inconclusive: 79.4 µM [inhibitor, partial curve]
18 | CCc1noc(CC2CCOC3(CCN(S(=O)(=O)c4ccc(C(C)C)cc4)CC3)C2)n1 (stereo unspecified) | inconclusive: 28.2 µM [inhibitor, partial curve]
19 | CN(Cc1ccccc1)Cc1cn(C[C@H]2O[C@@H](CC(=O)N3CCCC3)[C@H](O)[C@@H]2O)nn1 | inactive
20 | COc1ccccc1Nc1cnc2ccc(-c3ccccc3OC)nn12 | inconclusive: 50.1 µM [inhibitor, partial curve, poor fit]
21 | Cc1noc(C)c1-c1cc2cc(CN(C)C)oc2c(N2CCN(Cc3ccccc3)CC2)n1 | active: 35.5 µM

Row | SMILES | Potency
22 | O=C(C[C@@H]1CCNC[C@@H]1Cc1cc(CC2CCCCC2)on1)NCc1cccnc1 | inconclusive: 44.7 µM [inhibitor, partial curve, poor fit]
23 | COc1ccc(CN2CC(CNC(=O)Cc3ccccc3)C3(C2)CN(c2ccccc2)C3)cc1O (stereo unspecified) | inconclusive: 70.8 µM [inhibitor, single point]
24 | Cc1ccc(OCc2nnc(NC(=O)NCCc3cnc[nH]3)s2)cc1 | inconclusive: 79.4 µM [inhibitor, partial curve, poor fit]
25 | Cc1ccccc1Nc1cnc2ccc(N3CCOCC3)nn12 | inconclusive: 39.8 µM [inhibitor, partial curve, poor fit]
26 | CCOC(=O)N1CCC(N2CCCCC(N)C2)CC1 (stereo unspecified) | inactive
27 | CC(C)C1CN(CC2CCC(N)CC2)CCC(=O)N1Cc1ccc(F)cc1 (stereo unspecified) | inconclusive: 44.7 µM [inhibitor, partial curve, poor fit]
28 | Cc1ccc(C(=O)N2CC(N3C(=O)c4c(c(C)nn4-c4ccccc4)C3C(C)C)C2)cc1 (stereo unspecified) | inconclusive: 50.1 µM [inhibitor, partial curve, poor fit]
29 | COC(=O)C1=C(C)NC(=O)NC1c1cccs1 (stereo unspecified) | inactive
30 | Cc1ccc(CN2CCN(C(=O)c3ccc4c(c3)C(O)CCCCCN4C)CC2)cc1 (stereo unspecified) | inconclusive: 50.1 µM [inhibitor, partial curve, poor fit]
31 | COc1cccc(CNCC2(COc3ccccc3)C[C@@H](O)[C@@H](O)C2)c1 (stereo partly specified) | inconclusive: 112 µM [inhibitor, partial curve, poor fit]
32 | NC(=O)CNC(=O)C1=C[C@@H](NC(=O)Nc2ccc(OC(F)(F)F)cc2)[C@@H](O)[C@H](O)C1 | inactive
33 | COc1ccc(S(=O)(=O)NC[C@@H]2C=C(C)[C@H](CC(=O)NCc3ccc(C#N)cc3)C[C@H]2C(C)C)cc1 | active: 25.1 µM
34 | O=C1NC2(CCN(C(=O)c3ccc(C(F)(F)F)cc3)CC2)Oc2ccccc21 | inconclusive: 50.1 µM [inhibitor, partial curve, poor fit]
35 | COc1cccc(CN2CCOC3(CCN(Cc4ccc(C#N)cc4)CC3)C2=O)c1 | inconclusive: 35.5 µM [inhibitor, partial curve, poor fit]
36 | CC(C)(C)c1cc(CC2(NCc3ccc(OC(F)(F)F)cc3)COC2)no1 | active: 112 µM
37 | CC1(C(=O)NCC2CCCO2)CCc2cnc(NCc3ccccc3)nc21 (stereo unspecified) | active: 50.1 µM
38 | O=C(c1ccc2ncccc2c1)N1CC(CO)C2(CCNCC2)C1 (stereo unspecified) | inactive
39 | CSCC(=O)N[C@H]1CCN2C(=O)c3cc(-c4cccc(C)c4C)ccc3NC(=O)[C@H]12 | inconclusive: 89.1 µM [inhibitor, partial curve, poor fit]
40 | CCN1CCN(C(=O)c2cn3cc(-c4ccc(OC)cc4)sc3n2)CC1 | inconclusive: 70.8 µM [inhibitor, single point]
41 | O=C1CC2(CCN(C(=O)C3CCN(C(=O)c4ccc(Cl)nc4)CC3)CC2)Oc2ccccc2N1 | inactive
42 | COCC1CN(C2CCC2)CC12CCN(C(=O)c1ccc(OC)nc1)CC2 (stereo unspecified) | inconclusive: 70.8 µM [inhibitor, single point]

Row | SMILES | Potency
43 | O=C(CC1CCCN(c2cn[nH]c(=O)c2)C1)Nc1cccc(Cl)c1 (stereo unspecified) | inconclusive: 70.8 µM [inhibitor, single point]
44 | O=C1CCN(S(=O)(=O)c2ccccc2)CCCN(C(=O)CN2CCCC2=O)CCN1 | inactive
45 | Cc1ccc(Nc2ccnc(N3CCC(C(=O)NCc4ccc5c(c4)OCO5)CC3)n2)cc1 | active: 17.8 µM
46 | N#Cc1ccc(C(=O)N2C[C@@H](COc3ccccc3)[C@H](C(N)=O)C2)cc1 | inactive
47 | Cc1ccccc1CN1Cc2nc(-c3cccc(C(N)=O)c3)ccc2OCC1=O | inconclusive: 56.2 µM [inhibitor, partial curve, poor fit]
48 | CCOc1ccccc1NC(=O)N1C[C@@H](F)C[C@H]1C(=O)N1CCc2ccccc2C1 | inactive
49 | CC(=O)c1c(C)nn(CCC(=O)NCc2noc(-c3ccccc3)n2)c1C | inconclusive: 63.1 µM [inhibitor, partial curve, poor fit]
50 | CN(C)CCCC(=O)N1CCC2(CC1)CN([S+](C)(=O)[O-])Cc1ccccc1O2 | inactive
51 | CC(=O)c1cccc(NC(=O)N2C[C@H](c3nc(-c4ccncc4)no3)[C@@H](C)C2)c1 | inactive
52 | COCCNC(=O)[C@@H](C)C1CC[C@@]2(C)Cc3sc(CSc4ccccc4)nc3[C@@H](C)[C@@H]2[C@H]1O (stereo partly specified) | inconclusive: 44.7 µM [inhibitor, partial curve, poor fit]
53 | c1coc(CN2CC(Oc3ccc(-c4noc(C5CC5)n4)cc3)C2)c1 | inconclusive: 44.7 µM [inhibitor, partial curve, poor fit]
54 | COc1ccccc1-c1ccnc(-c2nnc(C)n2-c2ccccc2)c1 | inconclusive: 79.4 µM [inhibitor, partial curve, poor fit]
55 | Cc1nn(-c2ccccc2)c2c1C(C(C)C)N(C1CCN(C(=O)c3ccc(C(F)(F)F)cc3)C1)C2=O (stereo unspecified) | active: 15.8 µM
56 | O=C(c1ccccc1OC1CN(Cc2cccc(C(F)(F)F)c2)C1)N1CCOCC1 | inconclusive: 70.8 µM [inhibitor, single point]
57 | CC(=O)Oc1c(-c2ccc(NC(=O)C3CC3)cc2)c(-c2ccccc2F)nn1-c1ccccc1 | inactive
58 | C[S+](=O)([O-])N1Cc2ccccc2CC12CN(C(=O)c1ccc(C(F)(F)F)cc1)C2 | inconclusive: 50.1 µM [inhibitor, single point]
59 | Cc1nc(-c2ccc(Cl)cc2)n(Cc2ccccc2F)c(=O)c1CCO | inconclusive: 50.1 µM [inhibitor, partial curve, poor fit]
60 | O=C1NC[C@@H](CCC(=O)N2CCCC2)N2C[C@@H](NCc3ccccc3)C[C@@H]12 | inactive
61 | COc1ccccc1CNC(=O)c1cc2c(N(C)Cc3ccccc3)nc(C)cn2n1 | inconclusive: 20 µM [inhibitor, full curve]
